Experimental data reported in PubChem BioAssay AID686979 (National Center for Advancing Translational Sciences (NCATS), 2013).
Screen size: about 420,000 compounds; about 50,000 (12%) were called active. The shares of active, inactive and inconclusive entries below differ from those in the screen. Calls come from the whole dose curve; as a rule, active = well fitted inhibition curve with a large enough effect; inconclusive = small, poorly fitted or top-dose-only effect; inactive = flat fitted curve, though single readings scatter. Potencies of inconclusive entries are left out as doubtful fits.

assay: qHTS for Inhibitors of human tyrosyl-DNA phosphodiesterase 1 (TDP1): qHTS in cells in presence of CPT; details: chicken DT40 Tdp1-/-;hTDP1 cells + 20 nM CPT, ATP luminescence, 48 h; activity change, negative = growth inhibition: at 46.2 µM (top of the series) unless noted; note: nearly all actives have a fitted effect of over 55% in size
In short: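 Cell growth measured by CellTiter-Glo luminescence after a minimum 48 h, 37 C compound exposure with 20 nM CPT in Tdp1-knockout DT40 cells stably expressing hTDP1, seeded 400/well; qHTS titration format.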
% is set by controls: 0 for no effect and ±100 for the full control effect; potency is the fitted concentration of half-maximal effect; tags give direction and shape of the fitted curve.

Row | Structure (SMILES) | Potency | activity change, negative = growth inhibition
1 | COC(=O)CCC(=O)N1CCCC(CO)(Cc2ccccc2)C1 (centres undefined) | inconclusive [inhibitor, single point] | 
2 | Cc1c(C=O)c2ccccc2n1CC(=O)NC(C)c1ccccc1 (centres undefined) | inconclusive [inhibitor, single point] | 
3 | COc1ccc(/C=c2\sc3nc(-c4ccccc4OC)nn3c2=O)c(OC)c1 | inconclusive [inhibitor, single point] | 
4 | COc1ccc(OCC(=O)N/N=C/C=C/c2ccccc2)cc1 |  | inactive: 0.752%
5 | CCC1(C)Cc2c(sc3c2c2ncnn2c2nnc(SCC(=O)NCc4ccco4)n32)CO1 (centres undefined) | inconclusive [inhibitor, single point] | 
6 | CC(C)(C)C1c2[nH]c3ccccc3c2CCN1CCCn1cccn1 (centres undefined) | inconclusive [inhibitor, single point] | 
7 | Cc1ccc(NC(=O)c2ccc(S(=O)(=O)NCC3CCCO3)cc2)cc1C (centres undefined) | inconclusive [inhibitor, single point] | 
8 | COc1cc(OC)cc(C(=O)NNC(=O)CN2C(=O)NC3(CCCC3)C2=O)c1 |  | inactive: -14.8%
9 | COc1ccc(N2CCN(CCC(O)c3ccc4ccccc4c3)CC2)cc1 (centres undefined) | inconclusive [inhibitor, single point] | 
10 | CC(C)[C@H](NC(=O)OCc1ccccc1)C(=O)OCC(=O)N1CCCCC1 |  | inactive: 3.8%
11 | O=S(=O)(c1ccc(F)cc1)N1CCC2(CC1)OCCO2 |  | inactive: 4.46%
12 | COc1cccc(CNC(=O)C2CCCN(S(=O)(=O)c3ccc4c(c3)C(C)(C)C(=O)N4C)C2)c1 (centres undefined) | active: 14.6 µM | 
13 | CN1OC[C@@H]2CN3C(=O)N(c4cccc5ccccc45)c4ccccc4[C@@H]3C[C@@H]21 | inconclusive [inhibitor, single point] | 
14 | COc1cc(-c2nc(-c3ccc(NC(=O)c4ccc5c(c4)OCO5)cc3)no2)cc(OC)c1OC | inconclusive [inhibitor, partial curve] | 
15 | CS(=O)(=O)N(CC(=O)NCCC1=CCCCC1)C1CCCCC1 |  | inactive: -14.3%
16 | CCC(=O)c1ccc(OCC(=O)N2CCCC2)c(OC)c1 |  | inactive: 5.54%
17 | Cc1cccc(NC(=O)N2CCC(CN3CCCCCC3)CC2)c1C | inconclusive [inhibitor, single point] | 
18 | Cc1cc(O)ccc1-c1cc(C(=O)NCc2ccc(F)cc2)[nH]n1 | inconclusive [inhibitor, partial curve, poor fit] | 
19 | CCSCCOC(=O)C1=C(C)N(C)C(=O)NC1c1ccc2c(c1)OCO2 (centres undefined) |  | inactive: -13.5%
20 | CC(C)(C)NC(=S)NC(=O)C12CCC3CC(CC(C3)C1)C2 | inconclusive [inhibitor, single point] | 
21 | CCc1ccccc1NC(=O)Cn1nc(N2CCN(c3ccccc3OC)CC2)ccc1=O | inconclusive [inhibitor, single point] | 
22 | Cc1ccc(C)c(OCC(=O)Nc2ccc(C(=O)O)cc2NC(=O)COc2cc(C)ccc2C)c1 | inconclusive [inhibitor, partial curve, poor fit] | 
23 | CCOc1ccccc1C(=O)N1CCC(c2nc3ccccc3o2)CC1 | inconclusive [inhibitor, single point] | 

Row | Structure (SMILES) | Potency | activity change, negative = growth inhibition
24 | CCOc1ccccc1/C=N/Nc1nc2c(N)ncnc2n1[C@H]1O[C@@H](CO)[C@H](O)[C@@H]1O | inconclusive [inhibitor, single point] | 
25 | CSc1nc(SCCO)c2sc3nc(-c4ccco4)c4c(c3c2n1)CC(C)(C)OC4 | inconclusive [inhibitor, partial curve] | 
26 | COc1ccc(NS(=O)(=O)c2c(C)cc(C)cc2C)cc1 | inconclusive [inhibitor, partial curve] | 
27 | CN1/C(=C\C(=O)COC(=O)c2nccnc2N)C(C)(C)c2ccccc21 | inconclusive [inhibitor, single point] | 
28 | CCOC(=O)c1nc(NCc2ccccc2)c2ccccc2n1 | inconclusive [inhibitor, single point] | 
29 | CCN(CC)S(=O)(=O)c1ccc(NC2c3ncccc3C(=O)N2Cc2ccccc2)cc1 (centres undefined) |  | inactive: -12.8%
30 | O=C(CSCc1ccccc1Br)NNC(=S)NCc1ccco1 |  | inactive: 11.7%
31 | CC(=O)Nc1cccc(N/C(N)=N/c2nc(C)cc(C)n2)c1 | active: 25.9 µM | 
32 | Cc1ccc(C2CCN(C(=O)c3cnn(-c4ccc(C)c(C)c4)c3C3CCN(C(=O)OC(C)(C)C)CC3)C2)cc1 (centres undefined) | active: 10.3 µM | 
33 | CC(=O)c1ccc(N2CCN(c3ccc(C(N)=O)cc3[N+](=O)[O-])CC2)cc1 | inconclusive [inhibitor, single point] | 
34 | CC(C)c1ccccc1NC(=O)COC(=O)c1cc([N+](=O)[O-])ccc1N1CCOCC1 | inconclusive [inhibitor, single point] | 
35 | Cc1[nH]c2ccccc2c1NC(=O)CN1CCN(c2cccc(C(F)(F)F)c2)CC1 | inconclusive [inhibitor, single point] | 
36 | Cc1cc(C)c(OCCOCCn2c(-c3ccc(Cl)cc3)nc3ccccc3c2=O)c(C)c1 | inconclusive [inhibitor, single point] | 
37 | O=C(/C=C/c1ccc(S(=O)(=O)N2CCOCC2)cc1)Nc1cc(F)ccc1F | inconclusive [inhibitor, single point] | 
38 | N#Cc1ccccc1S(=O)(=O)N1CCN(Cc2cccs2)CC1 |  | inactive: -14.5%
39 | NC(=S)N/N=C/c1c(O)c(Br)cc2oc3c(c12)CCCC3 | active: 5.17 µM | 
40 | CS(=O)(=O)N(Cc1ccccc1)c1ccc(C(=O)Nc2ccc(Cl)cc2)cc1 | inconclusive [inhibitor, single point] | 
41 | COc1ccc(N2CCC(CNC(=O)Nc3ccc(OC)cc3OC)C2)cc1 (centres undefined) | inconclusive [inhibitor, single point] | 
42 | CCOc1ccc(NC(=O)[C@@H]2CCCN2C(=O)c2cccs2)cc1S(=O)(=O)N1CCCCC1 |  | inactive: -2.06%
43 | C=CCN=C1CC(C)(C)CC(=O)/C1=C(\O)CCCN1C(=O)c2ccccc2C1=O |  | inactive: 0.338%
44 | CCN(CC)S(=O)(=O)c1cccc(NC(=O)c2ccc(S(=O)(=O)N3CCCC3)cc2)c1 | inconclusive [inhibitor, single point] | 
45 | CC(=O)c1ccc(N2CCN(C(=S)Nc3cc(C)ccc3C)CC2)cc1 |  | inactive: -12.2%
46 | NC(=O)CSc1nc2ccc(NC(=O)COc3ccccc3Cl)cc2s1 |  | inconclusive: -30.4% [inhibitor]

Row | Structure (SMILES) | Potency | activity change, negative = growth inhibition
47 | Cc1ccc(-c2cc(C(=O)N/N=C/c3ccccc3O)n[nH]2)o1 | active: 5.17 µM | 
48 | CCCCCNC(=O)C(c1ccc(C#N)cc1)n1c(=O)c(-c2ccco2)nc2ccccc21 (centres undefined) | inconclusive [inhibitor, single point] | 
49 | O=C(CCS(=O)(=O)c1ccccc1)Nc1nc(-c2cccs2)cs1 | inconclusive [inhibitor, single point] | 
50 | COC(=O)c1ccc2nc(-c3ccc(C)cc3)c(Cc3ccc(C)cc3)n2c1 | inconclusive [inhibitor, single point] | 
51 | COCCCNC(=S)NC1CCCCC1 |  | inactive: 1.24%
52 | CCc1ccc(CC2S/C(=C(\C#N)C(C)=O)NC2=O)cc1 (centres undefined) | active: 1.64 µM | 
53 | Cc1ccc(C)c(N2CCN(C(=O)C(CC(C)C)NS(=O)(=O)c3ccc4nc(C)sc4c3)CC2)c1 (centres undefined) | inconclusive [inhibitor, single point] | 
54 | COc1ccc(-c2cc(C(=O)NC3CC3)c3ccccc3n2)cc1 | inconclusive [inhibitor, single point] | 
55 | CCCc1cc(C(=O)N2CCCC(Cc3cccc(Cl)c3)(C(=O)OCC)C2)n(C)n1 (centres undefined) | active: 18.4 µM | 
56 | O=C(Nc1ccccc1)c1cc(C2CCCCN2C(=O)c2ccc3c(c2)CCO3)on1 (centres undefined) | active: 23.1 µM | 
57 | Cc1cnc(C)c(N2CCN(Cc3cn(C)nc3-c3cccc(Cl)c3)CC2)n1 | inconclusive [inhibitor, single point] | 
58 | C#CC[N+]1(CC#Cc2cccc(C)c2)CCCCC1 | active: 2.59 µM | 
59 | COc1cccc(-c2nc(SCC(=O)Nc3ccc4c(c3)OCCO4)c(-c3ccc(C)cc3)[nH]2)c1 | inconclusive [inhibitor, single point] | 
60 | O=C1COc2ccc(-c3n[nH]c(=O)c4ccccc34)cc2N1 |  | inactive: -10.5%
61 | CCOc1ccc(-c2cc(C(=O)NCCc3ccc(OC)c(OC)c3)c3c(-c4ccc(F)cc4)[nH]nc3n2)cc1 | inconclusive [inhibitor, single point] | 
62 | CC(C)(C)c1ccc(C(=O)C[N+]2(C)CCCc3ccccc32)cc1 (centres undefined) | active: 3.55 µM | 
63 | COc1cccc(/C=N/Nc2ccc([N+](=O)[O-])cn2)c1O | active: 3.26 µM | 
64 | Cc1ccc(Cn2c(C)c3cnn(CC(=O)NC4CCCC4)c(=O)c3c2C)cc1 | inconclusive [inhibitor, partial curve] | 
65 | Cc1ccc(O)c(NC(=S)NC(=O)COc2ccc(Br)cc2)c1 | inconclusive [inhibitor, single point] | 
66 | CCc1ccc(S(=O)(=O)NCc2cn3ccccc3n2)s1 | inconclusive [inhibitor, partial curve] | 
67 | O=c1oc(Nc2ccccc2F)nc2ccccc12 | inconclusive [inhibitor, partial curve] | 
68 | Cc1cc2cc(CN(CC3CCCO3)C(=S)NCc3ccco3)c(=O)[nH]c2cc1C (centres undefined) | inconclusive [inhibitor, single point] | 
69 | COc1ccccc1CN(Cc1c(Cl)cccc1Cl)S(=O)(=O)c1ccc(Br)cc1 | active: 16.4 µM | 
